Results taken from PubChem BioAssay AID488969 (Vanderbilt High Throughput Screening Facility, 2010).
Over roughly 110,000 compounds, “z-score” has its median near -0.1; the highest 2% begin near 2. Some of the results follow.

target: Metabotropic glutamate receptor 8 (Rattus norvegicus) (UniProt P70579); assay: rat mGluR8 modulators via GIRK flux, primary screen, cell-based, thallium flux, HTS (AID 488969); conditions: HEK293 rat mGluR8, GIRK (G protein-gated inwardly rectifying potassium channel) thallium flux, FluoZin2; at 10 µM; stronger effect = higher value; submaximal glutamate (EC20) added with thallium
UniProt P70579, sequence (P70579 whole entry, looked up): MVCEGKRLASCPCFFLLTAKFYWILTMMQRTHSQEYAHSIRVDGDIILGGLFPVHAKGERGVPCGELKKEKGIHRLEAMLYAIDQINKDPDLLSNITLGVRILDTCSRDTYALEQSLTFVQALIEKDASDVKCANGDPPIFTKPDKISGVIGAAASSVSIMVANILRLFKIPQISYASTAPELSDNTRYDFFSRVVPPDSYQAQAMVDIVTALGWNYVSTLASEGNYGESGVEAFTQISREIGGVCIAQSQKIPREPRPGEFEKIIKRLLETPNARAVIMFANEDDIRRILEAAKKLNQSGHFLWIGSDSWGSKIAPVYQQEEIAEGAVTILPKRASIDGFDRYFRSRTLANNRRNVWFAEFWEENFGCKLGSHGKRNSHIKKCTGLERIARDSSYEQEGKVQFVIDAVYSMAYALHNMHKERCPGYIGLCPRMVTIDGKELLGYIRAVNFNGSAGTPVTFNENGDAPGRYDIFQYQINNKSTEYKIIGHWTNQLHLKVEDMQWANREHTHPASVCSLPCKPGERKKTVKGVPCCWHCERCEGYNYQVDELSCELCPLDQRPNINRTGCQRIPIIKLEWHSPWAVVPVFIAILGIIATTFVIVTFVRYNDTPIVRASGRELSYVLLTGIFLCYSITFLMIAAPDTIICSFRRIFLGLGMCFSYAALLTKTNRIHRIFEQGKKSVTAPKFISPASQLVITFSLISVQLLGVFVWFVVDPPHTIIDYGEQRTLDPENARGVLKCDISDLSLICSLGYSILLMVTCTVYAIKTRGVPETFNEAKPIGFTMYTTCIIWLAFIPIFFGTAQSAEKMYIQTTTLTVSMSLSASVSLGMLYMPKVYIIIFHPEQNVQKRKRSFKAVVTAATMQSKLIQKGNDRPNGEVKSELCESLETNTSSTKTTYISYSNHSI

Row | Structure (SMILES) | z-score
1 | CN(C(=O)N1CCN(c2ccccn2)CC1)c1ccccc1 | 0.828
2 | CCOC(=O)c1c(-c2ccc(C)o2)csc1NC(=O)COC(=O)c1cccs1 | 0.191
3 | CCCCOC(=O)/C=C/c1c(C)[nH]c(=O)[nH]c1=O | 0.829
4 | Cc1ccc(S(=O)(=O)c2nc(Nc3ccccc3)sc2Cl)cc1 | -0.00279
5 | CCOc1ccc(/C(O)=C2/C(=O)C(=O)N(CCN(CC)CC)C2c2ccco2)cc1 (stereo not drawn) | -0.086
6 | CN(C)CCCCNCCCNC(=O)/C=N\O | -0.279
7 | CCOC(=O)CSc1nnc(CNC(=O)c2cccc(C)c2)n1-c1ccccc1OC | 0.0317
8 | O=C(Oc1ccc(OC(=O)c2ccco2)c(S(=O)(=O)c2ccc(Br)cc2)c1)c1ccco1 | 0.811
9 | O=C(CS(=O)(=O)Cc1ccccc1)N1CCN(c2cccc(C(F)(F)F)c2)CC1 | 0.101
10 | CCCCc1nc2ccccc2n2cc3c(=O)n(C)c(=O)n(C)c3c12 | -0.449
11 | COc1ccc(C2CC(C(F)(F)F)n3ncc(C(=O)NCc4cccnc4)c3N2)cc1OC (stereo not drawn) | -0.109
12 | CCC(CCC(=O)Nc1cccc(C(=O)O)c1)C(=O)O (stereo not drawn) | 0.0473
13 | COc1ccc(NS(=O)(=O)c2cc(NC(=O)c3ccc(F)cc3)ccc2OC)cc1 | -0.511
14 | C=CCn1c(SCC(=O)Nc2nccs2)nnc1-c1ccco1 | -0.146
15 | CCn1c(SCC(=O)NCc2cccs2)nnc1-c1cccs1 | 0.0957
16 | CCn1c(SCC(=O)Nc2ccc(C)cc2)nc2nc3c(cc2c1=O)CCCC3 | 0.307
17 | N#CC1=C(N)OC2=C(CC/C2=C\c2ccc(F)cc2)C1c1ccc(F)cc1 (stereo not drawn) | -0.231
18 | O=c1c2cc(N3CCOCC3)ccc2[nH]c(=S)n1CCCN1CCCCC1 | 0.262
19 | C=CCNC(=O)COC(=O)c1ccc(Cl)c(S(=O)(=O)N(Cc2ccccc2)c2ccccc2)c1 | -0.604
20 | CCOC(=O)c1c(NC(=O)C2c3ccccc3Oc3ccccc32)sc(C(N)=O)c1C | -0.282
21 | O=C1c2ccccc2NC2CCCCCN12 (stereo not drawn) | -0.883
22 | O=C(Nc1ccon1)c1ccc(OC2CCCC2)cc1 | -0.108
23 | Cc1ccc(NC(=O)C(Nc2ccccc2)c2ccccc2)cc1 (stereo not drawn) | -0.923
24 | Cc1cc(C)cc(OCC(=O)NC2CCCc3ccccc32)c1 (stereo not drawn) | -0.1
25 | O=C(O)CCC(=O)Nc1ccccc1N1CCOCC1 | -1.41
26 | O=C(O)c1cccc(-n2cnnn2)c1 | -0.667
27 | COc1ccc(-c2nnc(-c3cc4c(ccc5ccccc54)oc3=O)o2)cc1 | -0.09

Row | Structure (SMILES) | z-score
28 | c1ccc(-n2c(-c3ccncc3)nnc2N2CCOCC2)cc1 | 0.16
29 | Cn1c(=O)[nH]c(=O)c2c1nc(Sc1ncccn1)n2CCCc1ccccc1 | 0.89
30 | Cn1c(N2CCC(C(N)=O)CC2)nc2c1c(=O)n(Cc1cccc(Br)c1)c(=O)n2C | -1.26
31 | Cc1ccc(CN2C(=O)CCC2C(=O)NCc2ccco2)cc1 (stereo not drawn) | 0.173
32 | c1csc(-c2nc3ccccc3[nH]2)c1 | -0.315
33 | CC(C)(C)c1ccc(S(=O)(=O)O/N=C2/CCCCC2c2ccc([N+](=O)[O-])cc2[N+](=O)[O-])cc1 (stereo not drawn) | -0.305
34 | CCN1C(=O)c2cccc3cccc1c23 | -0.389
35 | Cc1cc2cc(CCNC(=O)c3ccc(Br)o3)c(=O)[nH]c2cc1C | -0.493
36 | CCOc1ccccc1NC(=O)CCN(c1ccc(C)cc1)S(=O)(=O)c1ccccc1 | -0.5
37 | Oc1cccc(C=NCc2ccccc2)c1 | -0.687
38 | N#Cc1nc(COc2ccccc2Cl)oc1N1CCCCCC1 | 0.0523
39 | COc1cc2c(C#N)c(N3CCc4ccccc4C3)nc(N)c2c(N)n1 | -0.142
40 | CSCCC(NS(=O)(=O)c1ccc2c(c1)oc(=O)n2C)C(=O)NC1CCCc2ccccc21 (stereo not drawn) | 0.148
41 | COC(=O)c1c(NC(=O)Cn2cnc([N+](=O)[O-])n2)sc2c1CCC(C)C2 (stereo not drawn) | -0.0716
42 | O=S1(=O)N=C(N/N=C/c2ccccn2)c2ccccc21 | -0.0441
43 | Cc1ccc(C2=N/C(=C\c3cccnc3)C(=O)O2)cc1 | -0.75
44 | CCSc1nnc(NC(=O)CSc2nnc(-c3c[nH]c4ccccc34)n2CC)s1 | -1.46
45 | COc1ccccc1NS(=O)(=O)c1ccc(N/N=C(\C)C(C)C)c([N+](=O)[O-])c1 | -0.662
46 | COc1ccc(Cn2c(SCc3ccccc3C)nc3cc(OC)c(OC)cc3c2=N)cc1 | 0.159
47 | Cc1nnc(NC(=O)c2c(F)cccc2F)s1 | -0.476
48 | CCOC(=O)N1CCN(c2ccc(C(=O)c3ccccc3)cc2F)CC1 | -1.65
49 | O=C(CN1CCN(c2nc(-c3ccccc3)cs2)CC1)NCc1ccc2c(c1)OCO2 | -0.644
50 | COc1cc(C)c(-c2cc(C(=O)O)c(C)o2)cc1C(C)C | -0.106
51 | Cc1nc(NCc2ccco2)c2oc3ccccc3c2n1 | -1.44
52 | COc1ccc2c(C)cc(N3CCOCC3)nc2c1 | 0.0241
53 | COC(=O)C1(C(F)(F)F)N=C(N(C)C)OC(N(C)C)=N1 | 1.08
